# Assay results taken from PubChem BioAssay AID1345083 (National Center for Advancing Translational Sciences (NCATS), 2018).
# Several values for one entry are separate records, joined by “and”; a condition that tells them apart may be missing. Equal values may be shown once. Among all 94,000 compounds or so, about 6,200 (6.6%) were called active. This list was built around the results that the source calls inconclusive (neither active nor inactive); the mix of calls is not that of the screen. Calls come from the whole dose curve; as a rule, active = well fitted inhibition curve with a large enough effect; inconclusive = small, poorly fitted or top-dose-only effect; inactive = flat fitted curve, though single readings scatter. Potencies of inconclusive entries are doubtful fits and often do not repeat.
# Experiment: Cytotoxic Profiling in HEK 293 Cell Line of Diverse Libraries Using Quantitative High-Throughput Screening; note: nearly all actives have a fitted effect of over 60% in size
# Settings: HEK 293 viability, ATP luminescence (CellTiter-Glo), 48-72 h; series mostly up to 115 µM
# Outline: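 Read-out: CellTiter-Glo ATP luminescence. Cells: HEK 293, 250 cells/well. Exposure: 48 or 72 hr, 37 degree Celsius.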
# Potency is the fitted concentration of half-maximal effect; tags give direction and shape of the fitted curve.
row,SMILES,Potency
1,O=C(O)CCC(=O)N1Cc2[nH]cnc2C[C@H]1c1nc(-c2ccc3ccccc3c2)no1,inactive
2,NC(=O)Nc1ccc(S(=O)(=O)NCc2cc3n(n2)CCCNC3)cc1,inactive
3,COc1ccc(OC2CCN(C(C)=O)CC2)c(C(=O)NCc2cc3ccccc3[nH]2)c1,inactive
4,O=C(NCCCc1ccccc1)c1n[nH]c2c1CN(C(=O)c1cccc(Cl)c1)CC2,"inconclusive: 50.1 µM [inhibitor, partial curve, poor fit]"
5,COc1ccc(-c2ccccc2C(=O)N2CCC(NC(=O)c3ccc(Cl)cc3)CC2)nn1,"inconclusive: 79.4 µM [inhibitor, partial curve, poor fit]"
6,O=C(Cc1cccc(Cl)c1)N1CCC(c2nn(-c3ccc(Cl)cc3)c(=O)[nH]2)CC1,"inconclusive: 50.1 µM [inhibitor, partial curve, poor fit]"
7,Cc1noc(C)c1CC(=O)N1CCC(Cc2noc(-c3ccccc3)n2)C1 (stereo not given),"inconclusive: 89.1 µM [inhibitor, single point]"
8,c1ccc(-c2ccccc2Nc2cnc3ccc(N4CCOCC4)nn23)cc1,active: 89.1 µM
9,COc1ccc(CNC(=O)C2CCCN(Cc3cccc(-c4ccsc4)c3)C2)cc1 (stereo not given),"inconclusive: 50.1 µM [inhibitor, partial curve, poor fit]"
10,CNC(=O)c1cc(C2CC2)nc2onc(C3CCCN3[S+](=O)([O-])c3ccccc3)c12 (stereo not given),inactive
11,O=C(NC1CCN(c2cc(-c3ccc(F)cc3)[nH]n2)C1)c1cccc(OC(F)(F)F)c1 (stereo not given),active: 39.8 µM
12,Cc1ccc2c(C(=O)NCc3ccc(Cl)cc3)cnn2c1,"inconclusive: 126 µM [inhibitor, single point]"
13,CC(C)c1nc2c(c(-c3ccc(Cl)cc3)n1)CCN(Cc1cccc3ccccc13)CC2,"inconclusive: 50.1 µM [inhibitor, partial curve, poor fit]"
14,CN(Cc1nc(COc2ccccc2)no1)CC1(N2CCOCC2)CCCCC1,"inconclusive: 14.1 µM [inhibitor, full curve]"
15,COc1cccc(CCC(=O)N2CCC(Cc3nc(-c4ccccc4)no3)CC2)c1,"inconclusive: 50.1 µM [inhibitor, partial curve, poor fit]"
16,CC(C)CN(CC1CN(C(=O)Nc2cccc(Cl)c2)CCO1)C(=O)c1ccc(F)cc1 (stereo not given),"inconclusive: 50.1 µM [inhibitor, partial curve, poor fit]"
17,O=C(c1cccc(Cl)c1)N1CCC2(CC1)N=C(c1cccc(Br)c1)NO2,"inconclusive: 89.1 µM [inhibitor, single point]"
18,CC1(c2ccccc2)CCCN(c2cncc(C(=O)N3CCOCC3)n2)C1 (stereo not given),"inconclusive: 35.5 µM [inhibitor, partial curve, poor fit]"
19,CNC(=O)c1cccc(-c2cnc(Nc3ccc4c(c3)OCCO4)c3c2CCO3)c1,active: 79.4 µM
20,Cc1ccccc1CN1CCN2C(=O)N(C3CCCCC3)C[C@H]2C1,"inconclusive: 50.1 µM [inhibitor, partial curve, poor fit]"

row,SMILES,Potency
1,Cc1ccc(C2Cn3nnc(C(=O)N4CCC(C(=O)Nc5ccc(F)c(Cl)c5)CC4)c3CO2)cc1 (stereo not given),"inconclusive: 56.2 µM [inhibitor, partial curve, poor fit]"
2,CCN1c2cc(C(=O)NCc3ccc(F)cc3)ccc2C(=O)N2CCCCC21 (stereo not given),"inconclusive: 79.4 µM [inhibitor, partial curve, poor fit]"
3,CN1CC2(CCCN(C(=O)CCc3ccncc3)CC2)OC1=O (stereo not given),inactive
4,COc1ccccc1Nc1ccnc(N2CCC(NC(=O)C(C)(C)C)CC2)n1,"inconclusive: 56.2 µM [inhibitor, partial curve, poor fit]"
5,CCOc1ccc(C2Cn3nnc(-c4nc(-c5ccc(SC)cc5)no4)c3CO2)cc1 (stereo not given),inactive
6,CN(Cc1ccccc1F)C1CCc2ccccc21 (stereo not given),"inactive and inconclusive: 112 µM [inhibitor, single point]"
7,CCC(c1ccccn1)N(C)C(=O)c1cc(COc2ccccc2)[nH]n1 (stereo not given),inactive
8,O=C(NCCc1ccccc1)C1Cn2cccc2C(=O)N1Cc1ccccc1 (stereo not given),"inconclusive: 56.2 µM [inhibitor, partial curve, poor fit]"
9,CC(=O)Nc1ccc(S(=O)(=O)N[C@H]2C[C@@H](c3nc(-c4ccccc4)no3)N(C)C2)cc1,active: 39.8 µM
10,CC(C)CN1C(=O)c2ccccc2C(C(=O)Nc2ccccn2)C12CCCC2 (stereo not given),"inconclusive: 89.1 µM [inhibitor, partial curve, poor fit]"
11,COc1ccccc1Nc1ccnc(N2CCCC(C(=O)NCc3cccs3)C2)n1 (stereo not given),"inconclusive: 50.1 µM [inhibitor, partial curve, poor fit]"
12,Cc1cc(CN2CCC3(C2)C(=O)N(Cc2ccccc2)c2ccccc23)no1 (stereo not given),active: 50.1 µM
13,O=C(NC1CCN(c2cc(-c3cccs3)[nH]n2)CC1)c1cccc(OC(F)(F)F)c1,"inconclusive: 50.1 µM [inhibitor, partial curve, poor fit]"
14,CCN(CC)C(=O)c1cc(-c2ccccc2C(F)(F)F)nc2c1cnn2C,"inconclusive: 50.1 µM [inhibitor, partial curve, poor fit]"
15,COc1cccc(C(=O)N2CCCC(c3noc(COc4ccccc4)n3)C2)c1 (stereo not given),"inconclusive: 100 µM [inhibitor, single point]"
16,Cc1c(O)cccc1C(=O)N1CCCC2(C1)C(=O)N(C)c1ccccc12 (stereo not given),"inconclusive: 79.4 µM [inhibitor, single point]"
17,Cc1cc(C)cc(-c2ccc(CN3CCCC(NC(=O)Cc4cccc(Cl)c4)C3)cc2)c1 (stereo not given),active: 25.1 µM
18,CCCNC(=O)c1coc(COc2ccc3c(c2)C(c2ccc(C)cc2)N(C(=O)C2CC2)CC3)n1 (stereo not given),"inconclusive: 44.7 µM [inhibitor, partial curve, poor fit]"
19,COCC(=O)N(C1CCOCC1)C1CCN(S(=O)(=O)c2ccc(F)c(F)c2)CC1,inactive
20,O=C(NCc1ccccn1)C1c2ccccc2CC(=O)N1Cc1ccccc1 (stereo not given),inactive
